Reference: PubChem BioAssay (EPA / NIEHS)
Several values for one entry are separate records, joined by “and”; a condition that tells them apart may be missing. Identical values can stand only once. The shares of active, inactive and inconclusive entries below differ from those in the screen. A potency beside an inconclusive call is a rough fit, not a confirmed value. Activity calls are given as the source filed them. Rule for the calls: active = hit-call score of the fitted dose curve at least 0.9, where 1 is the maximum; inconclusive = response in the unintended direction; inactive = score below 0.9.

How the values were obtained:
[1] = target: Estrogen receptor beta (Homo sapiens) (UniProt Q92731); experiment: ATG_hERb_XSP1: Attagene TRANS-FACTORIAL Multi-Species (XSP1) HepG2 Assay for human Estrogen Receptor (ESR2) (AID 2283788)
Sequence of UniProt Q92731 (Q92731 whole entry, looked up, the tested form may be a part): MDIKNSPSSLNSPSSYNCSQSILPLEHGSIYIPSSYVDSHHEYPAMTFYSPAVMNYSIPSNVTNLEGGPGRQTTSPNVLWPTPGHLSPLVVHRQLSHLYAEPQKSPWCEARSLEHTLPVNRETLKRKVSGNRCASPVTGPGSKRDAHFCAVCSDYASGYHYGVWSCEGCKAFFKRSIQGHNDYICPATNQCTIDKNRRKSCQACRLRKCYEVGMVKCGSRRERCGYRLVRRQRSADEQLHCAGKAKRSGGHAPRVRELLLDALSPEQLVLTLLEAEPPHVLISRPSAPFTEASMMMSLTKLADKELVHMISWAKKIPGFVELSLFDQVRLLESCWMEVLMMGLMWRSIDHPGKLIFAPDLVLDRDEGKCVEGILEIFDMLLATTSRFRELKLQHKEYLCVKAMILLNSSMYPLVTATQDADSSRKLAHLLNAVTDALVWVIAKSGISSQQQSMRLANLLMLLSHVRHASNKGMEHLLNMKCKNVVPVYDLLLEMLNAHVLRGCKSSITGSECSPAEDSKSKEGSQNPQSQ
In short: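 Read-out: reporter mRNA induction by RT-PCR, HpaI digestion and capillary electrophoresis fluorescence, fitted in positive direction relative to DMSO baseline. Human liver HepG2 cells expressing ERβ-Gal4 fusion, dosed 24 h, medium containing 3 nM 6-alpha-fluorotestosterone.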

[2] = target: GAL4 Transcription Factor (Internal Marker), GAL4 (gene 855828) (UniProt P04386); experiment: ATG_GAL4_XSP1: Attagene TRANS-FACTORIAL Multi-Species (XSP1) HepG2 Assay for GAL4 Transcription Factor (Internal Marker) (AID 2283789)
Sequence of UniProt P04386 (P04386 whole entry, looked up, the tested form may be a part): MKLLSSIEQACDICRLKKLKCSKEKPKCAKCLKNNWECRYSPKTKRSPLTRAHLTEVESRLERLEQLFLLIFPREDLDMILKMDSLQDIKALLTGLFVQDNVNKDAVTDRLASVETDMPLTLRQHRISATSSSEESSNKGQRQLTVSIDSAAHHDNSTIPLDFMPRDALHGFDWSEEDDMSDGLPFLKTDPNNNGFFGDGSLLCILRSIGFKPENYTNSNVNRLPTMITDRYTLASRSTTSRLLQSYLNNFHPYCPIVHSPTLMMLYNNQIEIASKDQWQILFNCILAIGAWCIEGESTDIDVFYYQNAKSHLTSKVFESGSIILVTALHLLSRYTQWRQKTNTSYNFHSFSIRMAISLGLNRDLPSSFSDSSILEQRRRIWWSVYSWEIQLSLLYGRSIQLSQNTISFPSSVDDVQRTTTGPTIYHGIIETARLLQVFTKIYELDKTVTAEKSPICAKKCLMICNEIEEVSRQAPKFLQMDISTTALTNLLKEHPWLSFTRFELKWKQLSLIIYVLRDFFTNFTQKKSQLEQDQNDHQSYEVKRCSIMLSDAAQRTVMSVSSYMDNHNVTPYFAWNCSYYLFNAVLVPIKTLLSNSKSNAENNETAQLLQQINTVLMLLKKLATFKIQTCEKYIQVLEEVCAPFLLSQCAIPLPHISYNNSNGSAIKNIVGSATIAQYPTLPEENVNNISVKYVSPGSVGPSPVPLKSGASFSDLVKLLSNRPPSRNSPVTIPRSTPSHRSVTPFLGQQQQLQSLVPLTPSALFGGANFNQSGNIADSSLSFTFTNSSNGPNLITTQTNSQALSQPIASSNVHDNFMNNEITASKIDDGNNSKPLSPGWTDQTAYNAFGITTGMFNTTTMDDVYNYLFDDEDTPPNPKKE
In short: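 HepG2 cells transiently transfected with multiplexed GAL4-UAS reporter units were exposed for 24 h with 3 nM 6-alpha-fluorotestosterone present. Reporter mRNA was quantified by RT-PCR, FAM labelling, HpaI digestion and capillary electrophoresis; background-control readout, gain-of-signal versus DMSO.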

[3] = ATG_M_06_XSP1: Attagene TRANS-FACTORIAL Multi-Species (XSP1) HepG2 Assay for M06 Transcription Factor (Internal Marker) (AID 2283790)
In short: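 Transfected HepG2 multi-reporter system treated 24 h in the presence of 3 nM 6-alpha-fluorotestosterone. The M06 internal marker transcript was quantified by RT-PCR with capillary electrophoresis as a background control, and gain of signal was scored versus DMSO.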

[4] = ATG_M_61_XSP1: Attagene TRANS-FACTORIAL Multi-Species (XSP1) HepG2 Assay for M61 Transcription Factor (Internal Marker) (AID 2283797)
In short: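 HepG2 cells transiently transfected with multiplexed GAL4-driven reporter units, dosed 24 h with 3 nM 6-alpha-fluorotestosterone present. Reporter mRNA quantified by RT-PCR, 6-FAM labelling, HpaI digestion and capillary electrophoresis; internal-marker background control, gain of signal versus DMSO.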

[5] = ATG_M_32_XSP1: Attagene TRANS-FACTORIAL Multi-Species (XSP1) HepG2 Assay for M32 Transcription Factor (Internal Marker) (AID 2283799)
In short: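 HepG2 cells transiently transfected with multi-species TRANS reporter units, dosed 24 h with 3 nM 6-alpha-fluorotestosterone present. Internal-marker reporter mRNA quantified by RT-PCR and capillary electrophoresis; positive-direction fit versus DMSO.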

[6] = system: zebrafish Peroxisome Proliferator-activated Receptor gamma (PPARg), gene 557037; experiment: ATG_zfPPARg_XSP1: Attagene TRANS-FACTORIAL Multi-Species (XSP1) HepG2 Assay for zebrafish Peroxisome Proliferator-activated Receptor gamma (PPARg) (AID 2283801)
In short: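 HepG2 cells transiently transfected with GAL4-UAS reporter units including a zebrafish PPARg–GAL4 chimera, dosed 24 h with 3 nM 6-alpha-fluorotestosterone present. Reporter mRNA quantified by RT-PCR, FAM labelling, HpaI digestion and capillary electrophoresis; induction versus DMSO.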

[7] = target: frog Thyroid hormone Receptor alpha (TRa), thra-a (gene 397942) (UniProt P15204); experiment: ATG_frTRa_XSP1: Attagene TRANS-FACTORIAL Multi-Species (XSP1) HepG2 Assay for frog Thyroid hormone Receptor alpha (TRa) (AID 2283804)
Sequence of UniProt P15204 (P15204 whole entry, looked up, the tested form may be a part): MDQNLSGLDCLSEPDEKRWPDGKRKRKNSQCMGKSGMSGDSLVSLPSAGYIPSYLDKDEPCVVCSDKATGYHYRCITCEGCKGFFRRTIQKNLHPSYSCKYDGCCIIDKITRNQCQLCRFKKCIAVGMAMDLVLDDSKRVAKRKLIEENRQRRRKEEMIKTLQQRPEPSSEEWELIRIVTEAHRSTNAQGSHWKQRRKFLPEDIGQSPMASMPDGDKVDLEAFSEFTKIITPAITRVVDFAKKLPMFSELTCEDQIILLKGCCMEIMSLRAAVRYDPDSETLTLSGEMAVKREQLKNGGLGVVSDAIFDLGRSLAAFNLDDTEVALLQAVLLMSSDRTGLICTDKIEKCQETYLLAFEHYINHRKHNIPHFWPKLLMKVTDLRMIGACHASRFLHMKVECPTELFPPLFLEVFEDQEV
In short: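 HepG2 cells transiently transfected with frog TRa-GAL4 chimeric reporter units, dosed 24 hr with 3 nM 6-alpha-fluorotestosterone present; reporter mRNA quantified by RT-PCR, fluorescent labelling and capillary electrophoresis, gain of signal versus DMSO.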

[8] = system: turtle Thyroid Hormone Receptor, alpha (TRa), gene 101949057; experiment: ATG_trTRa_XSP1: Attagene TRANS-FACTORIAL Multi-Species (XSP1) HepG2 Assay for turtle Thyroid Hormone Receptor, alpha (TRa) (AID 2283806)
In short: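 HepG2 cells transiently transfected with GAL4-UAS reporter units and chimeric receptor-Gal4 constructs, with 3 nM 6-alpha-fluorotestosterone present. Reporter mRNA was quantified 24 h after dosing by RT-PCR, 6-FAM labelling and capillary electrophoresis; gain of signal versus DMSO.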

[9] = target: zebrafish Thyroid Hormone Receptor alpha (TRa), thraa (gene 30670) (UniProt Q98867); experiment: ATG_zfTRa_XSP1: Attagene TRANS-FACTORIAL Multi-Species (XSP1) HepG2 Assay for zebrafish Thyroid Hormone Receptor alpha (TRa) (AID 2283807)
In short: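 HepG2 cells transiently transfected with GAL4-UAS reporter units including a zebrafish TRa–Gal4 chimera, dosed 24 h with 3 nM 6-alpha-fluorotestosterone present. Reporter mRNA quantified by RT-PCR and capillary electrophoresis; gain versus DMSO.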

[10] = target: human Thyroid hormone Receptor beta (TRb), THRB (gene 7068) (UniProt P10828); experiment: ATG_hTRb_XSP1: Attagene TRANS-FACTORIAL Multi-Species (XSP1) HepG2 Assay for human Thyroid hormone Receptor beta (TRb) (AID 2283808)
Sequence of UniProt P10828 (P10828 whole entry, looked up, the tested form may be a part): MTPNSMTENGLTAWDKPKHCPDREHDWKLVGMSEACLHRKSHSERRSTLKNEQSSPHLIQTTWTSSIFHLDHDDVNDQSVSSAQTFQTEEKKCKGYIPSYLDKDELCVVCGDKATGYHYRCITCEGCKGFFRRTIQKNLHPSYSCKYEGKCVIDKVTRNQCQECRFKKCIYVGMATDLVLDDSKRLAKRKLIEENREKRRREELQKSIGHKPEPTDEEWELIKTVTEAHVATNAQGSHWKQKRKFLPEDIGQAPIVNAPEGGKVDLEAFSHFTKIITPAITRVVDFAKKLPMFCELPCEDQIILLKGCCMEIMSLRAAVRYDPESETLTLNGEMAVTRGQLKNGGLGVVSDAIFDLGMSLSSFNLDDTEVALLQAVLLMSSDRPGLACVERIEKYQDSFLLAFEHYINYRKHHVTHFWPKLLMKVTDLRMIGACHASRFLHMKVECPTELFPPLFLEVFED
In short: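 HepG2 cells transiently transfected with reporter units driving GAL4-UAS reporters for chimeric NR-Gal4 proteins; 24 h chemical exposure with 3 nM 6-alpha-fluorotestosterone present. Reporter mRNA quantified by RT-PCR and capillary electrophoresis, gain of signal versus DMSO.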

[11] = ATG_M_06_XSP2: Attagene TRANS-FACTORIAL Multi-Species (XSP2) HepG2 Assay for M06 Transcription Factor (Internal Marker) (AID 2283811);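 note: hits are increases in signal above the DMSO baseline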
In short: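 HepG2 cells transiently transfected with GAL4-UAS multi-reporter constructs, dosed 24 h with 3 nM 6-alpha-fluorotestosterone plus 1.5 nM norgestrel present to stimulate androgen receptor. Reporter mRNA quantified by RT-PCR, 6-FAM labelling, HpaI digestion and capillary electrophoresis; gain-of-signal fitted versus DMSO baseline.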

[12] = target: Estrogen receptor beta (Homo sapiens) (UniProt Q92731); experiment: ATG_hERb_XSP2: Attagene TRANS-FACTORIAL Multi-Species (XSP2) HepG2 Assay for human Estrogen Receptor (ERb) (AID 2283813);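 note: actives raise reporter mRNA above DMSO so AC50 reflects agonist induction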
In short: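 HepG2 cells transiently transfected with GAL4-UAS reporter units and chimeric human ERb-Gal4, 24 h exposure. Reporter mRNA quantified by RT-PCR with FAM labelling, HpaI digestion and capillary electrophoresis; gain of signal versus DMSO.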

[13] = target: GAL4 Transcription Factor (Internal Marker), GAL4 (gene 855828) (UniProt P04386); experiment: ATG_GAL4_XSP2: Attagene TRANS-FACTORIAL Multi-Species (XSP2) HepG2 Assay for GAL4 Transcription Factor (Internal Marker) (AID 2283814);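 note: GAL4 reporter mRNA background control in MRTU transfected cells not a receptor target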
In short: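 HepG2 cells transiently transfected with GAL4-UAS reporter units, stimulated with 3 nM 6-alpha-fluorotestosterone plus 1.5 nM norgestrel, dosed 24 h. Reporter mRNA by RT-PCR/capillary electrophoresis; gain-of-signal fit versus DMSO, background control.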

[14] = system: turtle Androgen Receptor (AR), gene 101947425; experiment: ATG_trAR_XSP2: Attagene TRANS-FACTORIAL Multi-Species (XSP2) HepG2 Assay for turtle Androgen Receptor (AR) (AID 2283815);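 note: reporter mRNA from a Gal4 chimera of turtle AR measured by RT-PCR; potency for gain of reporter signal meaning activation above DMSO baseline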
In short: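 HepG2 cells transiently transfected with GAL4-UAS reporter units for chimeric NR-Gal4 receptors; 24 h dosing in presence of 3 nM 6-alpha-fluorotestosterone and 1.5 nM norgestrel. Reporter mRNA by RT-PCR and capillary electrophoresis, gain of signal versus DMSO.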

[15] = target: zebrafish Estrogen Receptor (ER1), esr1 (gene 259252) (UniProt P57717); experiment: ATG_zfER1_XSP2: Attagene TRANS-FACTORIAL Multi-Species (XSP2) HepG2 Assay for zebrafish Estrogen Receptor (ER1) (AID 2283816)
Sequence of UniProt P57717 (P57717 whole entry, looked up, the tested form may be a part): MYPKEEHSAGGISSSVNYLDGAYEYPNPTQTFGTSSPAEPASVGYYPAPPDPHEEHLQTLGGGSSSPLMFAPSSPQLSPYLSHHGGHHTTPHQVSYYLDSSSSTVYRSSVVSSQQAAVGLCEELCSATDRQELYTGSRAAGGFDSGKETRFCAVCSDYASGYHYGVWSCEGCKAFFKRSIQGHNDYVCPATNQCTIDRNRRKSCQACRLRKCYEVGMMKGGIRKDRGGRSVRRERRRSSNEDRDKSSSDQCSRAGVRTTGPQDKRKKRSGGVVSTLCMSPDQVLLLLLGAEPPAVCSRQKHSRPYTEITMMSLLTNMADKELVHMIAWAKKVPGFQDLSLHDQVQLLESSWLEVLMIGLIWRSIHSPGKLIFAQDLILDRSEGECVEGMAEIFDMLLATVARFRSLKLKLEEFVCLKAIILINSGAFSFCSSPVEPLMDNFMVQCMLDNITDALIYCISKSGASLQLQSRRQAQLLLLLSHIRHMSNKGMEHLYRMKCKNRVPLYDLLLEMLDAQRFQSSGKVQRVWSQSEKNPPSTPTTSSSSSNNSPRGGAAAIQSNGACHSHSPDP
In short: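 HepG2 cells transiently transfected with a GAL4-UAS reporter and a chimeric zebrafish ER1-Gal4 construct, dosed 24 h. Reporter mRNA quantified by RT-PCR, labelling, HpaI digestion and capillary electrophoresis, relative to DMSO.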

[16] = ATG_XTT_Cytotoxicity_XSP1: Cytotoxicity Assessment in the Attagene TRANS-FACTORIAL Multi-Species (XSP1) HepG2 Assay (AID 2283810)
In short: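 XTT viability readout taken at 24 hours post-dosing in HepG2 liver cells co-treated with 3 nM 6-alpha-fluorotestosterone. Signal loss relative to DMSO controls reflects cytotoxicity.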

AR (gene 367) = AR (gene 367) (UniProt P10275); experiment: ACEA_AR_antagonist_80hr: ACEA Biosciences xCELLigence Real-Time Cell Analysis on Androgen Receptor Antagonism for Proliferation (AID 2283787);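 note: 22Rv1 human prostate cancer cells with growth followed by electrical impedance; hits lower the impedance growth signal relative to DMSO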
Sequence of UniProt P10275 (P10275 whole entry, looked up): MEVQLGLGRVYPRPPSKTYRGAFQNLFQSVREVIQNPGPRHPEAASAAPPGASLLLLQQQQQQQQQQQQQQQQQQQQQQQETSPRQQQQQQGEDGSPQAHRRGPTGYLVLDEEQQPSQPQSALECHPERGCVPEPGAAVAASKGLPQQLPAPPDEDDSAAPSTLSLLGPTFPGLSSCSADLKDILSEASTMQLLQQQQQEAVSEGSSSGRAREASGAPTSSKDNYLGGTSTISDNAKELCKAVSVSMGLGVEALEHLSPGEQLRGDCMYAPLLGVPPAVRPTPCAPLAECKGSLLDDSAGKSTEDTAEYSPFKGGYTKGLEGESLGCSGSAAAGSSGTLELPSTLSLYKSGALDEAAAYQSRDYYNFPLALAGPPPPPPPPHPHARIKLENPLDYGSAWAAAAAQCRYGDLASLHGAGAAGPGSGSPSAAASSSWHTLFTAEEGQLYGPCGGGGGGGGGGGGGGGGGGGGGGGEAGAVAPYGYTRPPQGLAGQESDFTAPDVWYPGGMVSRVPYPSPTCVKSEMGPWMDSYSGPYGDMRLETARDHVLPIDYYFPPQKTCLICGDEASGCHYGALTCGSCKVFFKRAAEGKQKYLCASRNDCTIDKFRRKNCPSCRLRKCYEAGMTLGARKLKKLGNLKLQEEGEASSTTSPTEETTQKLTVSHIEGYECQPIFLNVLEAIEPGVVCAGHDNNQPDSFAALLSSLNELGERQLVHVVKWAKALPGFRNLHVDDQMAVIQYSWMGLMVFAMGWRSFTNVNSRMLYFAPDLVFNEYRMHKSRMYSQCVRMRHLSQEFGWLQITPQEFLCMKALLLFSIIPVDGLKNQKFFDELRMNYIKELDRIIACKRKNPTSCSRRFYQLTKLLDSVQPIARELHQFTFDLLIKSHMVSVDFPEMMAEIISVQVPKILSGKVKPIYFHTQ
In short: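 Impedance readout (RT-CES), 80 h post-dose; loss-of-signal vs DMSO baseline. 22Rv1 cells in assay medium. Compounds: 8-pt 1:4 series, max 100 uM final, up to 0.5% DMSO; n = 2.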

[17] = target: Peroxisome proliferator-activated receptor gamma (Homo sapiens) (UniProt P37231); experiment: ATG_hPPARg_XSP1: Attagene TRANS-FACTORIAL Multi-Species (XSP1) HepG2 Assay for human Peroxisome Proliferator-activated Receptor gamma (PPARg) (AID 2283800)
Sequence of UniProt P37231 (P37231 whole entry, looked up, the tested form may be a part): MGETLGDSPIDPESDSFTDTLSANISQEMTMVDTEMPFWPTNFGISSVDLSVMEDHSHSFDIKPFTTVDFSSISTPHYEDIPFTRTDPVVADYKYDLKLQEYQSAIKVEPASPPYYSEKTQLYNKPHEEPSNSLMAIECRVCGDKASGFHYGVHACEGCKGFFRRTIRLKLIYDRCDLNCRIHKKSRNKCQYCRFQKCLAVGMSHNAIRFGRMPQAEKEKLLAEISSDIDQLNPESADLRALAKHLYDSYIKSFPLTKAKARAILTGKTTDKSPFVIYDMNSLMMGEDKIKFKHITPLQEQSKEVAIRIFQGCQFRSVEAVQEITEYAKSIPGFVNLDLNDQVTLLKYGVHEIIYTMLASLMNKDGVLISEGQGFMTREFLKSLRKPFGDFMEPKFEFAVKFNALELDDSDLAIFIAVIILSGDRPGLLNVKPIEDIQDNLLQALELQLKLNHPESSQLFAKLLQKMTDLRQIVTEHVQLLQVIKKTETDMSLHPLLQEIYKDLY
In short: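 HepG2 cells transiently transfected with GAL4-UAS reporter units carrying chimeric NR-Gal4 proteins; 3 nM 6-alpha-fluorotestosterone present. After 24 h dosing, reporter mRNA quantified by RT-PCR and capillary electrophoresis; gain of signal relative to DMSO.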

[18] = target: mouse Peroxisome Proliferator-activated Receptor gamma (PPARg), Pparg (gene 19016) (UniProt P37238); experiment: ATG_mPPARg_XSP1: Attagene TRANS-FACTORIAL Multi-Species (XSP1) HepG2 Assay for mouse Peroxisome Proliferator-activated Receptor gamma (PPARg) (AID 2283802)
Sequence of UniProt P37238 (P37238 whole entry, looked up, the tested form may be a part): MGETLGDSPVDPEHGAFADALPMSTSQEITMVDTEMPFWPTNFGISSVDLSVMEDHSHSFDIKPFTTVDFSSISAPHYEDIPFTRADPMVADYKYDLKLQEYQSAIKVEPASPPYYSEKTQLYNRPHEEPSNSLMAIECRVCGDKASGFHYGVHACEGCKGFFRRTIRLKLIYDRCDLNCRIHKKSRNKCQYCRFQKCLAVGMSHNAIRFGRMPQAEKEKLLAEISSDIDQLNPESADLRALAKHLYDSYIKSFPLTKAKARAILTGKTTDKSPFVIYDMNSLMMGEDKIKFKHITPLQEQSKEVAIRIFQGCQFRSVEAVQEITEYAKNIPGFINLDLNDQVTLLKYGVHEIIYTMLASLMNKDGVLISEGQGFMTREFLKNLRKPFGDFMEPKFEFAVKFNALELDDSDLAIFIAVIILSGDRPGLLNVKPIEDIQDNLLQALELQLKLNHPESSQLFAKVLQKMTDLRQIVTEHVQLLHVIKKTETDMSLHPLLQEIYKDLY
In short: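 HepG2 cells transiently transfected with GAL4-UAS reporter units driven by mouse PPARg–GAL4 chimera; 3 nM 6-alpha-fluorotestosterone present. After 24 h dosing, reporter mRNA quantified by RT-PCR, fluorescent labelling and capillary electrophoresis; gain of signal versus DMSO.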

[19] = target: Nuclear receptor subfamily 1 group I member 2 (Mus musculus) (UniProt O54915); experiment: ATG_mPXR_XSP1: Attagene TRANS-FACTORIAL Multi-Species (XSP1) HepG2 Assay for mouse Pregnane X Receptor (PXR) (AID 2283803)
In short: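 Transiently transfected HepG2 cells expressing a receptor-Gal4 chimera drive a GAL4-UAS reporter; 3 nM 6-alpha-fluorotestosterone included. Reporter mRNA read 24 h post-dose by RT-PCR and capillary electrophoresis; gain of signal relative to DMSO.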

Structure (SMILES): CCOCN(C(=O)CCl)c1c(C)cccc1CC
- AC50 [1]: inconclusive: 100 µM
- outcome [2]: inactive
- AC50 [3]: inconclusive: 100 µM
- AC50 [4]: inconclusive: 100 µM
- AC50 [5]: inconclusive: 49.4 µM
- AC50 [6]: inconclusive: 123 µM
- AC50 [7]: inconclusive: 26.9 µM
- AC50 [8]: inconclusive: 26 µM
- AC50 [9]: inconclusive: 25.1 µM
- AC50 [10]: inconclusive: 19.8 µM
- AC50 [11]: inconclusive: 100 µM
- AC50 [12]: inconclusive: 100 µM
- AC50 [13]: inconclusive: 100 µM
- AC50 [14]: inconclusive: 174 µM
- AC50 [15]: inconclusive: 100 µM

Structure (SMILES): C=CC1(C)OC(=O)N(c2cc(Cl)cc(Cl)c2)C1=O (centres undefined)
- outcome [1]: inactive
- outcome [2]: inactive
- AC50 [5]: inconclusive: 24.7 µM
- outcome [7]: inactive
- AC50 [8]: active: 134 µM
- AC50 [10]: active: 67.6 µM
- AC50 [16]: inconclusive: 0.288 µM
- AC50 [14]: inconclusive: 4.42 µM
- AC50 [15]: inconclusive: 100 µM

Structure (SMILES): Cl/C=C\C[N+]12CN3CN(CN(C3)C1)C2
- AC50 (AR (gene 367)): inconclusive: 0.137 µM

Structure (SMILES): COc1ccc(C(=CC(=O)N2CCOCC2)c2ccc(Cl)cc2)cc1OC
- AC50 (AR (gene 367)): active: 15.8 µM
- AC50 [14]: inconclusive: 100 µM and inconclusive: 35.6 µM

Structure (SMILES): Cc1ccccc1C(=O)Nc1cccc(OC(C)C)c1
- outcome (AR (gene 367)): inactive

Structure (SMILES): Clc1ccc(C(c2ccccc2Cl)C(Cl)(Cl)Cl)cc1 (centres undefined)
- outcome [2]: inactive
- AC50 [3]: inconclusive: 10 µM
- AC50 [4]: inconclusive: 10 µM
- outcome [5]: inactive
- outcome [17]: inactive
- AC50 [6]: inconclusive: 10 µM
- AC50 [18]: inconclusive: 0.0056 µM
- AC50 [7]: inconclusive: 0.064 µM
- outcome [10]: inactive
- AC50 [13]: inconclusive: 1.62 µM
- AC50 [14]: inconclusive: 3.72 µM

Structure (SMILES): CC(C)(O)C(=O)Nc1ccc([N+](=O)[O-])c(C(F)(F)F)c1
- AC50 [1]: inconclusive: 0.00457 µM
- AC50 [2]: inconclusive: 50 µM
- AC50 [5]: inconclusive: 9.15 µM
- outcome [7]: inactive
- AC50 [8]: active: 30.6 µM
- AC50 [10]: active: 18.2 µM
- outcome [16]: inactive
- outcome [13]: inactive
- AC50 [14]: inconclusive: 1.57 µM

Structure (SMILES): O=C1C2(Cl)C3(Cl)C4(Cl)C(Cl)(Cl)C5(Cl)C3(Cl)C1(Cl)C5(Cl)C24Cl (centres undefined)
- AC50 (AR (gene 367)): active: 7.92 µM
- AC50 [2]: inconclusive: 3.33 µM
- AC50 [5]: inconclusive: 1.63 µM
- AC50 [17]: inconclusive: 3.33 µM
- AC50 [6]: inconclusive: 3.33 µM
- AC50 [18]: inconclusive: 0.000914 µM
- AC50 [19]: inconclusive: 3.33 µM
- outcome [7]: inactive
- outcome [8]: inactive
- AC50 [13]: inconclusive: 10 µM
- AC50 [14]: inconclusive: 10 µM
